Whole data set: some 18,000 sequences, median “TetR repression strength (sort-seq, GFP reporter)” near 0.23, cut for the highest 2% near 0.68. Some of the results follow.

This assay deals with TetR (class B, Tn10) (UniProt P04483). Kind of assay: TetR repression strength (sort-seq, GFP reporter) (relative to tetO2 = 1); higher = stronger repression. The following applies: E. coli. The gist of the method: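 E. coli SIG10-MAX carried a low-copy plasmid library with eight randomized operator positions between a constitutive promoter and sfGFP, with TetR constitutively expressed. Cells grew 5 h at 37 °C in LB with 50 µg/mL chloramphenicol, then 10^6 cells were FACS-sorted into 13 fluorescence bins, each Illumina-sequenced. Repression strength is the top bin index plus one minus the read-weighted mean bin, divided by the wild-type operator value. Three independent transformations; variants with ≥30 reads in all replicates and CV ≤0.5 were averaged.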
Sequence of UniProt P04483 (P04483 whole entry): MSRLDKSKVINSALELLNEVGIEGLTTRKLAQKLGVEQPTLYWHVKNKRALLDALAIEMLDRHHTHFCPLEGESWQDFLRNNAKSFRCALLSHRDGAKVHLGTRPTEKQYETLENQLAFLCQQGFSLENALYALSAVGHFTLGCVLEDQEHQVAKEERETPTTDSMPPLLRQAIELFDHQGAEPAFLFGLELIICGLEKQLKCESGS
In turn, TCCCTGCAAGTACCTGAGA gave a TetR repression strength of 0.308.

The sequence TCCCTAGGAGTGATAGAGA registered a TetR repression strength of 0.52.

TCCCCCGGAGTCTTGGAGA displayed a TetR repression strength of 0.176.

Consider TCCCGACGAGTATGTGAGA, for which the TetR repression strength worked out at 0.173. As for TCCCTTGCAGTTGTAGAGA, the TetR repression strength came to 0.15.

Regarding TCCCTAGCAGTATGGGAGA, the TetR repression strength stood at 0.0462. In the case of TCCCTTCAAGTGACTGAGA it was 0.444. The sequence TCCCTTCGAGTTAGGGAGA yielded a TetR repression strength of 0.549.

Sequence TCCCCTTGAGTACGCGAGA yielded a TetR repression strength of 0.203. In the case of TCCCGTCGAGTGTGTGAGA it was 0.138; in that of TCCCTTGGAGTAGGTGAGA, 0.0675; in that of TCCCTTCCAGTGTTGGAGA, 0.561. Under TCCCTGTGAGTAGTGGAGA stands 0.183. Under TCCCGCATAGTGTGTGAGA stands 0.301; under TCCCAGAAAGTGTTAGAGA, 0.299; under TCCCGTCTAGTAGAGGAGA, 0.213. Sequence TCCCATATAGTGTGTGAGA registered a TetR repression strength of 0.267. For the sequence TCCCGGTTAGTGAACGAGA, the TetR repression strength is 0.207. In the case of TCCCCCAGAGTTTGTGAGA, the TetR repression strength is 0.302. Under TCCCATGGAGTTCGAGAGA stands 0.0732; under TCCCACATAGTCGAGGAGA, 0.328. Under TCCCTTACAGTTGATGAGA stands 0.291; under TCCCACGGAGTCTGGGAGA, 0.0855. As for TCCCTCGAAGTGTGCGAGA, the TetR repression strength stood at 0.248. The sequence TCCCCCCCAGTCGAGGAGA yielded a TetR repression strength of 0.0963. In the case of TCCCTCAAAGTGGGGGAGA it was 0.066; in that of TCCCTCTAAGTGGTGGAGA, 0.163. The sequence TCCCCGTTAGTCGGGGAGA yielded a TetR repression strength of 0.207. Under TCCCCATAAGTCCTGGAGA stands 0.231. TCCCTAACAGTCAACGAGA displayed a TetR repression strength of 0.31. Under TCCCTCGAAGTTCAAGAGA stands 0.359; under TCCCGGGCAGTTGGGGAGA, 0.323.

The sequence TCCCTTGGAGTTGAGGAGA came in with a TetR repression strength of 0.465. In the case of TCCCGTGAAGTGGTGGAGA, the TetR repression strength is 0.548. In the case of TCCCATCGAGTTGCAGAGA it was 0.0504; in that of TCCCAGAGAGTATCCGAGA, 0.274. In the case of TCCCAGAGAGTGTGAGAGA it was 0.26; in that of TCCCACTAAGTGAGAGAGA, 0.361. TCCCCAGCAGTAAGGGAGA showed a TetR repression strength of 0.227. In the case of TCCCGCTTAGTCACGGAGA it was 0.257; in that of TCCCGACAAGTTGTTGAGA, 0.15. In the case of TCCCCATGAGTGTTGGAGA it was 0.199. Under TCCCTGTGAGTGTCAGAGA stands 0.169; under TCCCTGTCAGTGAGGGAGA, 0.272; under TCCCTAAGAGTCTTAGAGA, 0.441. TCCCAGGCAGTTAGGGAGA: the TetR repression strength was found to be 0.077. In the case of TCCCACGGAGTATTTGAGA it was 0.194; in that of TCCCGGCAAGTCAATGAGA, 0.205; in that of TCCCGGCGAGTAGTGGAGA, 0.188. Under TCCCAAGGAGTACTCGAGA stands 0.135.

The sequence TCCCTGTCAGTGATGGAGA returned a TetR repression strength of 0.523. In the case of TCCCCAGGAGTTGTGGAGA it was 0.578. In the case of TCCCGACAAGTGATGGAGA it was 0.304; in that of TCCCATCGAGTCACAGAGA, 0.341; in that of TCCCGTACAGTTTGTGAGA, 0.314.

As to TCCCACTTAGTTCGTGAGA, the TetR repression strength was determined as 0.245. Sequence TCCCAGATAGTGGATGAGA returned a TetR repression strength of 0.0745.

For TCCCCCGGAGTCGGGGAGA, the TetR repression strength amounted to 0.17. In the case of TCCCGATTAGTGGAGGAGA it was 0.179; in that of TCCCATGAAGTAGCGGAGA, 0.282. In the case of TCCCATTTAGTAAAGGAGA, the TetR repression strength came to 0.149. TCCCAGATAGTAAGCGAGA: the TetR repression strength came to 0.171. As to TCCCGACGAGTAGCCGAGA, the TetR repression strength was found to be 0. In the case of TCCCGGGTAGTTACTGAGA it was 0.123; in that of TCCCTTAAAGTCCGAGAGA, 0.291; in that of TCCCATTTAGTGTGCGAGA, 0.0814. Under TCCCGATTAGTTATTGAGA stands 0.351; under TCCCGTGAAGTTCGGGAGA, 0.579; under TCCCAAGGAGTCGTGGAGA, 0.327. Under TCCCCGAAAGTGGCCGAGA stands 0.0544; under TCCCCCTAAGTAGGTGAGA, 0.49.

TCCCACTCAGTTTCTGAGA registered a TetR repression strength of 0.378. Under TCCCTTTGAGTTCACGAGA stands 0.232.

TCCCTTGGAGTGAGTGAGA returned a TetR repression strength of 0.237.

Regarding TCCCAGGGAGTGTATGAGA, the TetR repression strength is 0.169.

On to TCCCATCCAGTGCTTGAGA, for which the TetR repression strength stood at 0.267. In the case of TCCCTAACAGTACTGGAGA it was 0.104; in that of TCCCTGCCAGTCCTTGAGA, 0.354; in that of TCCCTATCAGTAATTGAGA, 0.787. In the case of TCCCCACGAGTGCGGGAGA it was 0.194; in that of TCCCCAGAAGTATTCGAGA, 0.193.

Regarding TCCCGACCAGTGATAGAGA, the TetR repression strength was 0.662. Under TCCCACTTAGTCGGCGAGA stands 0.16; under TCCCGTTAAGTAGGAGAGA, 0.125; under TCCCCCTCAGTGTGAGAGA, 0.401. Under TCCCTGAGAGTCAAGGAGA stands 0.446; under TCCCATGTAGTAGTGGAGA, 0.292. Sequence TCCCGGGGAGTTACAGAGA showed a TetR repression strength of 0.903. In the case of TCCCGGCCAGTTGAGGAGA it was 0.132; in that of TCCCTCTTAGTAGGCGAGA, 0.0406; in that of TCCCCGTGAGTGCAAGAGA, 0.408.

TCCCTTCAAGTGGAGGAGA: the TetR repression strength was 0.346. Under TCCCAACGAGTGCGCGAGA stands 0.413; under TCCCTGGCAGTGAGAGAGA, 0.356; under TCCCGGATAGTAGTAGAGA, 0.49. In the case of TCCCTGTCAGTGGGCGAGA it was 0.184; in that of TCCCCATGAGTAGTCGAGA, 1.03. With TCCCGCGAAGTGCAGGAGA, the TetR repression strength came to 0.379. Under TCCCATACAGTCGGTGAGA stands 0.186. Take TCCCAGTTAGTCTAGGAGA: the TetR repression strength came to 0.143.

TCCCTTAAAGTTTTGGAGA: the TetR repression strength is 0.269. In the case of TCCCGTTAAGTTTCTGAGA it was 0.302.

For the origin of these results see a collection of fitness landscapes (doi:10.1038/s41467-024-54723-y).
